Data on 107 molecules can be found in PubChem BioAssay AID1347073 (National Center for Advancing Translational Sciences (NCATS), 2019).

The structures appear in SMILES notation. Hit rate of the full screen: of about 45,000 compounds, about 200 (0.44%) were called active. About 7% were inconclusive and are not listed. The call rests on the fitted dose curve; in most records, active means well fitted activation curve with a large enough effect; inconclusive means small, poorly fitted or top-dose-only effect; inactive means no such curve, though single readings can be large or run the other way. The list shows a part of the results.

This experiment in a line: qHTS of TDP-43 Inhibitors: NCGC Sytravon Library Screen. Further: 0% is about no effect; nearly all actives have a fitted effect of over 55% in size. The note with it: yeast TDP-43 toxicity rescue, BacTiter-Glo growth, 24 h; series mostly up to 46.1 µM; growth rescue (activation): at the top concentration. Put shortly: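 TDP-43-expressing yeast, pregrown in raffinose, seeded at OD600 0.02 in galactose medium with compound for 24 hr at 30 deg C. Growth read by BacTiter-Glo luminescence, so rescue of toxicity appears as activation.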
In the case of `NS(=O)(=O)c1cc(C(=O)Nc2ccc3c(c2)CCC3)ccc1Cl`, the “growth rescue (activation)” value was inactive: 14.3%.
On to `Cc1ccc(C)c(NC(=O)CSc2sc3c(O)cc(=O)[nH]c3c2C#N)c1`, for which the “growth rescue (activation)” value is inactive: 11.9%.
The figure for `O=C(CCc1nc(-c2ccccc2Cl)no1)NC1CCCCC1` is inactive: 23.6%; for `Cc1ccc(C(=O)N/C(=C\c2ccc(-c3ccccc3[N+](=O)[O-])o2)C(=O)NCCN(C)C)cc1` it is inactive: 7.07%.
The figure for `Cc1ccccc1CC1(CO)CCCN(C(=O)CCCN2CCCCC2=O)C1` (configuration not stated) is inactive: -0.456%; for `CCC(C(=O)Nc1ccc(S(=O)(=O)N2CCN(C)CC2)cc1)c1ccccc1` (configuration not stated) it is inactive: 7.36%; for `O=C(O)c1csc(N/N=C/c2ccc(Br)cc2)n1` it is inactive: 1.92%.
The figure for `CSc1ccccc1NC(=O)CN(C)C(=O)c1cccc(S(=O)(=O)N(C)C)c1` is inactive: -1.11%.
Regarding `CCN(CC)S(=O)(=O)c1ccc(C)c(NC(=O)COc2ccc3c(C)cc(=O)oc3c2)c1`, the “growth rescue (activation)” value is inactive: 14.6%.
The figure for `OC(CNC1CCCC1)COCCOc1ccc(Br)cc1` (configuration not stated) is inactive: 24.2%.
The figure for `COc1ccc(-c2n[nH]c(=S)n2-c2cc(OC)ccc2OC)cc1` is inactive: 8.02%; for `S=C(Nc1ccc(Cl)c(Cl)c1)NC1CCN(Cc2ccccc2)CC1` it is inactive: 10.7%.
The figure for `Cc1ccc2nc(-c3ccc(O)cc3)c(Nc3ccc(Cl)cc3)n2c1` is inactive: 15%; for `CCCc1cc(=O)[nH]c(SCC(=O)N2CCN(c3ccccc3OC)CC2)n1` it is inactive: 7.55%; for `O=C(CSc1nnc(-c2ccco2)n1-c1ccccc1)Nc1c(Cl)cc(Cl)cc1C(=O)O` it is inactive: 0.278%.
In the case of `CC(C)(CO)NC(=O)CC1C(=O)NCCN1Cc1ccc(-c2ccccc2)cc1` (configuration not stated), the “growth rescue (activation)” value is inactive: -6.41%.
Under `COc1cc(C=C2C(=O)OC(c3ccccc3)OC2=O)cc(Br)c1O` (configuration not stated) stands inactive: -6.39%.
In the case of `OCCNCc1cc(Br)ccc1OCc1ccc(F)cc1`, the “growth rescue (activation)” value was inactive: -2.9%.
Under `COc1ccc(C(C)NC(=O)C2CCN(CCCc3ccccc3)CC2)cc1OC` (configuration not stated) stands inactive: 0.91%.
The figure for `COc1ccc(N(C)C(=O)Cn2c(=O)oc3ccccc32)c(OC)c1` is inactive: 14.3%; for `O=[N+]([O-])c1ccc(N2CCN(c3ccccc3O)CC2)cc1` it is inactive: 24.8%; for `COc1ccc(CCNC(=O)C2CC(O)CN2S(=O)(=O)c2ccc(Cl)cc2)cc1OC` (configuration not stated) it is inactive: -22.2%.
As for `O=C(c1ccc(S(=O)(=O)N2CCOCC2)cc1)N1CCc2ccccc21`, the “growth rescue (activation)” value is inactive: 11.9%.
The figure for `CN(C)S(=O)(=O)c1ccc2c(c1)nc(CCC(=O)O)n2C` is inactive: 12.8%; for `O=C(NCCNCc1cccc(Cl)c1)c1ccco1` it is inactive: -4.59%; for `Cc1ccccc1OCC(=O)OCC(=O)NCC1CCCO1` (configuration not stated) it is inactive: 9.63%.
Under `CCOC(=O)C1CCCN(C(=O)c2ccc(OC)c([N+](=O)[O-])c2)C1` (configuration not stated) stands inactive: -25.2%.
`CCN(CC)CCN(C)c1ccc(N2C(=O)C3CC=CCC3C2=O)cc1[N+](=O)[O-]` (configuration not stated): the “growth rescue (activation)” value is inactive: 5.15%.
The figure for `O=C(NC1CCN(S(=O)(=O)c2cccc([N+](=O)[O-])c2)CC1)C1CCCCC1` is inactive: -10.6%.
The figure for `CCCNC(=O)C1(C)CCCN(Cc2ccccc2N(C)C)C1` (configuration not stated) is inactive: 10.8%; for `COc1cc(/C=N/N=C2/NC(=O)C(Cc3ccc(F)cc3)S2)ccc1O` (configuration not stated) it is inactive: -17%.
The figure for `Cn1nc(C(=O)OCC(=O)Nc2ccc(F)cc2Cl)c2ccccc2c1=O` is inactive: 7.25%; for `O=C(Nc1ccc(NC(=O)C2CCCCC2)nc1)c1cccc(F)c1` it is inactive: 11.8%.
On to `COc1ccc(CC(=O)NCC2CCCN(Cc3ccc(OC(F)(F)F)cc3)C2)cc1` (configuration not stated), for which the “growth rescue (activation)” value was inactive: 2.21%.
Under `Cn1c(=O)c2c(nc(Br)n2Cc2nnc(N)s2)n(C)c1=O` stands inactive: 9.51%; under `COc1cc(/C=C/C(=O)O)cc(S(=O)(=O)Nc2ccc3c(c2)CCC3)c1OC`, inactive: -12.6%.
Under `CCOC(=O)c1c(C)oc2c1c(C=NCC1CCCO1)c(O)c1ccccc12` (configuration not stated) stands inactive: -9.97%; under `O=C1NCC(c2ccccc2)C1C(=O)N/N=C/c1ccc(Cl)s1` (configuration not stated), inactive: -4.47%.
Under `O=C(CN1CCCc2ccccc21)N/N=C/c1ccc(F)cc1F` stands inactive: -11.4%.
Consider `Cc1cc(CSc2ccccc2)ccc1NC(=O)c1ccc(CN2CCOCC2)cc1`, for which the “growth rescue (activation)” value is inactive: 0.582%.
Under `OC(c1ccc(F)cc1)c1ncc(-c2ccc3ccccc3c2)[nH]1` (configuration not stated) stands inactive: -6.1%; under `CC(C)Oc1ccc(C(=O)NC2CCN(Cc3ccccc3)CC2)cc1`, inactive: 7.67%.
With `O=C(CNS(=O)(=O)c1ccccc1)NCC(=O)OCc1ccc(Br)cc1`, the “growth rescue (activation)” value is inactive: -10.4%.
The figure for `CCN(CC)S(=O)(=O)c1ccc2oc(Nc3ccc(OC)cc3)nc2c1` is inactive: 15.1%; for `COc1ccc(NC(=O)CC2(CC(=O)N3CCOCC3)CCCC2)cc1Cl` it is inactive: 13.8%; for `COc1cccc(CNCc2ccc(C(=O)O)cc2)c1OC` it is inactive: 7.29%.
The figure for `CCc1ccc(-c2nc(CSCC(=O)NC3CC3)c(C)o2)cc1` is inactive: -16.7%.
On to `O=C(Cn1cnc2sc(-c3ccccc3)cc2c1=O)NCCc1ccccc1`, for which the “growth rescue (activation)” value is inactive: 6.69%.
The figure for `CCOc1cc(/C=N/NC(=O)CCCC(=O)NC2CCCCC2)ccc1O` is inactive: -5.06%; for `COC(=O)c1ccc(NC(=S)NC2c3ccccc3CC2O)cc1` (configuration not stated) it is inactive: -3.01%; for `O=C(Nc1cccc(F)c1)N1CCC(n2c(=O)[nH]c3ccccc32)CC1` it is inactive: -0.145%.
Under `Cc1cc(OCC(=O)OCC(=O)N(C)C2CCS(=O)(=O)C2)ccc1Cl` (configuration not stated) stands inactive: -19.7%; under `CCCCN(C(=O)c1ccncc1)c1c(N)n(CCC)c(=O)[nH]c1=O`, inactive: 0.585%.
On to `CC(=O)c1ccc(N2CCN(C(=O)c3cc(-c4ccncc4)nc4ccc(Cl)cc34)CC2)cc1`, for which the “growth rescue (activation)” value was inactive: -1.69%.
The figure for `Cc1nn(-c2ccccc2)c(Cl)c1/C=C1\SC(=S)N(C)C1=O` is inactive: -4.45%; for `CCOCCOC(=O)c1[nH]c2c(c1C)C(=O)CC(c1ccccc1)C2` (configuration not stated) it is inactive: 18.4%; for `COc1ccc(Br)cc1/C=N/NC(=O)c1cccnc1` it is inactive: -26.1%.
Under `Cc1nn(C(=O)COc2ccccc2)c(C)c1Sc1ccccc1` stands inactive: 28.7%; under `CCc1ccccc1NC(=O)Cn1nnc(-c2nc(-c3ccc(C)cc3)no2)c1N`, inactive: 7.19%; under `Cc1c(NC(=O)CSc2nnc(Nc3ccccc3)s2)c(=O)n(-c2ccccc2)n1C`, inactive: 3.57%.
Under `CCOC(=O)N(C)S(=O)(=O)c1ccccc1[N+](=O)[O-]` stands inactive: -15.9%; under `CSc1ccc(CN2CCC2(C)C(=O)NCc2cccc(C(F)(F)F)c2)cc1` (configuration not stated), inactive: 19.6%; under `COc1ccccc1-n1cn[nH]c1=S`, inactive: 18.1%.
As to `O=C(O)c1ccc(N/N=C/c2ccc(-c3ccc(Br)cc3)o2)cc1`, the “growth rescue (activation)” value was inactive: 17.5%.
As for `O=C(COC(=O)C1CCN(/C=C/C(=O)C(F)(F)F)CC1)Nc1ccccc1`, the “growth rescue (activation)” value was inactive: -12.6%.
With `Cc1noc(C)c1COc1ccc(C(=O)O)cc1`, the “growth rescue (activation)” value was inactive: 7.18%.
Under `Cc1ccc(C(=O)NNC(=O)c2cccs2)cc1` stands inactive: 24.2%.
On to `CCc1nc2ccc(C(=O)NCc3ccccc3OC)cn2c1N(C=O)CCC(C)C`, for which the “growth rescue (activation)” value was inactive: 17.3%.
Consider `CNC(=O)c1cc(S(=O)(=O)Nc2ccc3c(c2)OCO3)ccc1C`, for which the “growth rescue (activation)” value was inactive: 7.85%.
Under `COc1ccc(/C=C(\C#N)c2cc(OC)c(OC)cc2[N+](=O)[O-])cc1` stands inactive: 15.8%; under `COc1cc(OC)c(NC(=S)Nc2cccc(C)c2)cc1Cl`, inactive: -23.3%.
The figure for `COc1ccc(/C=N/NC(=O)c2cc[n+]([O-])cc2)cc1O` is inactive: -4.01%; for `COc1cc2c(cc1OC)CN(c1ccc3ccccc3n1)CC2` it is inactive: 11.7%; for `CCOc1cc(CNC(=O)CCCn2c(=O)c3cccn3c3cccnc32)cc(OCC)c1OCC` it is inactive: 15.2%.
Under `COc1ccccc1-c1nc(C#N)c(NCc2ccc(F)cc2)o1` stands inactive: 22.5%; under `COc1ccc(OC)c(NC(=O)C2=C(C)Nc3ncnn3C2c2cccs2)c1` (configuration not stated), inactive: 32.8%.
As for `c1ccc(-c2nccc(-c3ccco3)n2)nc1`, the “growth rescue (activation)” value was inactive: 24.1%.
As to `CC(C)c1ccc(CN2CCC2(C)C(=O)Nc2cnc3ccccc3c2)cc1` (configuration not stated), the “growth rescue (activation)” value is inactive: 4.56%.
The figure for `COc1cccc(-c2cnc(C(O)c3cccc(CN4CCCCC4)c3)[nH]2)c1` (configuration not stated) is inactive: 2.81%; for `O=C(NCCO)C1CCN(S(=O)(=O)c2ccc(F)cc2)CC1` it is inactive: 4.64%; for `CCc1ccc(NC(=O)c2cc(-c3ccc4c(c3)OCO4)on2)cc1` it is inactive: -7.93%.
The figure for `COc1cc(-n2c(=O)c3ccccc3n(CC(=O)c3ccc(F)cc3)c2=O)cc(OC)c1OC` is inactive: 10.1%.
Under `C[C@@H](C(=O)Nc1cccc(S(=O)(=O)N2CCOCC2)c1)N1C(=O)C2CC=CCC2C1=O` (some centres not stated) stands inactive: 8.92%.
Turning to `C=CCn1c(COc2ccc(F)cc2)nnc1SCC(=O)Nc1cccc(S(N)(=O)=O)c1`, the “growth rescue (activation)” value was inactive: 0.218%.
The figure for `O=C(c1ccco1)N1CCN(CC(O)COc2ccc(Br)cc2)CC1` (configuration not stated) is inactive: 5.71%.
Consider `CCc1ccc(NC(=O)c2cc(-c3cccs3)on2)cc1`, for which the “growth rescue (activation)” value was inactive: 28.6%.
`O=C1CCC/C(=N/NC(=O)C2CCN(S(=O)(=O)c3cccs3)CC2)C1`: the “growth rescue (activation)” value is inactive: 2.17%.
The figure for `Cc1ccc(C(=O)NCCc2ccc(S(=O)(=O)N3CCCC3)cc2)cc1` is inactive: -0.971%.
Under `COC(=O)C(NC(C)=O)(Nc1cccc(C)n1)C(F)(F)F` (configuration not stated) stands inactive: 7.8%.
With `COC(=O)c1sccc1NC(=S)NCc1ccc(Cl)cc1`, the “growth rescue (activation)” value was inactive: 34.8%.
Under `Cn1c(=O)oc2cc(S(=O)(=O)N3CCOCC3)ccc21` stands inactive: 23.1%.
Under `Cc1ccc(Nc2nnc(SCC(=O)Nc3cccc(S(=O)(=O)NC4=NCCCCC4)c3)s2)cc1` stands inactive: -8.2%.
Under `Cc1n[nH]c(C)c1Sc1ccccc1N=Cc1cc(Cl)cc([N+](=O)[O-])c1O` stands inactive: -37.7%; under `COc1ccc(CNCCC(c2ccc(F)cc2)c2ccc(OC(C)C)cc2)cc1OC` (configuration not stated), inactive: -1.39%.
Regarding `COc1ccccc1CNC(=O)CCc1c(C)nc2cc(-c3ccccc3OC)nn2c1C`, the “growth rescue (activation)” value is inactive: 9.05%.
Regarding `Cc1nnc(SCC(=O)NC(=O)NC(C)C)s1`, the “growth rescue (activation)” value is inactive: 0.213%.
The figure for `CCc1ccc(NC(=O)COC(=O)c2cccs2)cc1` is inactive: 17.6%; for `CC(=O)c1ccc(NC(=O)C(C)Sc2ccccn2)cc1` (configuration not stated) it is inactive: 11.1%.
The figure for `N=c1c(C(=O)NC2CCCC2)cc2c(=O)n3ccccc3nc2n1CC1CCCO1` (configuration not stated) is inactive: 7.82%; for `CC(=O)Nc1ccc(NC(=O)C2CCCN2C(=O)Nc2cccc(F)c2)cc1` (configuration not stated) it is inactive: -19.3%; for `CCn1cc(C(=O)O)c(=O)c2cnc(N3CCN(C(=S)NC(=O)c4ccccc4)CC3)nc21` it is inactive: -4.76%.
Under `CC(C)C(NS(=O)(=O)c1ccccc1)C(=O)OCc1cc([N+](=O)[O-])cc2c1OCOC2` (configuration not stated) stands inactive: 2.66%; under `COc1ccccc1CNC(=O)c1ccc(OCC2CCCO2)cc1` (configuration not stated), inactive: 25.2%; under `CCOC(=O)c1ccc(NC(=O)CCc2ccc(C)o2)cc1`, inactive: 20.1%.
In the case of `CCNc1nc2c(c(=O)[nH]c(=O)n2C)n1CC(O)COc1ccc(Cl)cc1Cl` (configuration not stated), the “growth rescue (activation)” value was inactive: 4.97%.
The figure for `O=C(CCCN1C(=O)/C(=C\c2ccccc2)SC1=S)Nc1cccc(C(=O)O)c1` is inactive: 12.5%; for `C#CCOc1ccc(C2C3=C(CCCC3=O)N(CC(=O)O)C3=C2C(=O)CCC3)cc1Br` it is inactive: 1.11%.
